Data on 95 compounds can be found in PubChem BioAssay AID485344 (National Center for Advancing Translational Sciences (NCATS), 2010).

Molecules are shown by their SMILES. Out of some 340,000 compounds screened, about 6,900 (2%) were called active. Rule as the data show it: active = inhibition above about 30%; inactive = below that, where a call was filed. The list shows a part of the results, in another mix than the full data. Where no call is shown, the source filed none.

One may read the inhibition as the drop in the measured response relative to a control, in per cent.

Chain of UniProt P14416 (P14416 whole entry, looked up): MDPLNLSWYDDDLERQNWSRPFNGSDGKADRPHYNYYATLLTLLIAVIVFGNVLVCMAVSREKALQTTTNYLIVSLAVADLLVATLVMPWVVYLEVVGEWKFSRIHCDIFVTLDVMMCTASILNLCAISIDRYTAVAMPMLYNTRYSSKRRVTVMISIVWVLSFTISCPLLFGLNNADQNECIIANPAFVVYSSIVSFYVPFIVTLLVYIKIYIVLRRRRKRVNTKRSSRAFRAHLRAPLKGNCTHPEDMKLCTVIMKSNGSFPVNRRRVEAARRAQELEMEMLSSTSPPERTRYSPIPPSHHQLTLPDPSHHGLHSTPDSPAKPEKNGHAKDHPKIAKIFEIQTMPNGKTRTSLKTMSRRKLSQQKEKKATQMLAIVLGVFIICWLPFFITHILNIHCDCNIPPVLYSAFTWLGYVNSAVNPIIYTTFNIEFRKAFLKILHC

The target of this assay is D(2) dopamine receptor (Homo sapiens) (UniProt P14416). Nature of the assay: HTS Assay for Allosteric Antagonists of the Human D2 Dopamine Receptor: Primary Screen for Antagonists. Also: 0% is about no effect. The settings on record: HEK293 TREx D2 cells, calcium flux, dopamine EC80; at 10 µM; stronger effect = higher value. In short, it runs like this:
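Inhibition of EC80 dopamine-driven calcium flux, recorded kinetically, defines activity here; cells are a tetracycline-induced HEK293 T-REx line expressing force-coupled D2.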
In general terms: Calcium flux is commonly read through the fluorescence of an indicator in the cells.
For `CN(C)CCNC(=O)c1ccc2nc(Cc3ccccc3)oc2c1`, the inhibition was -16.6%.
`CCN(CC)C(=O)Cn1cc(SCC(=O)Nc2cc(OC)ccc2OC)c2ccccc21`: the inhibition was 6.36%.
For `COc1ccc(OCC(=O)Nc2ccc3c(c2)nc(CN2CCCC2)n3C)cc1` the value was active: 45.4%; for `O=c1oc2ccccc2cc1-c1nc(-c2cccc(Cl)c2)cs1`, -22.6%; for `COc1ccccc1N1CCN(c2ncc3c(n2)CCN(Cc2ccc(C)s2)C3)CC1`, -10.3%.
For `COc1ccc(NC(=O)CN2CCCN(Cc3ccccc3)S2(=O)=O)cc1` the value was 1.25%; for `Cc1ccc(NC(=O)C2CCN(S(=O)(=O)c3ccc4c(c3)CCCC(=O)N4)CC2)c(Br)c1`, -16.4%; for `Cc1cccc(NS(=O)(=O)c2ccc3c(c2)n(C)c(=O)n3C)c1C`, 15.5%.
As for `Fc1ccc(CNc2nc(-c3ccc(Cl)cc3)cc(C(F)(F)F)n2)cc1`, the figure is 1.6%; as for `CCCCOC(=O)c1ccc(NC(=O)c2ccc3c(c2)CCCN3S(C)(=O)=O)cc1`, 1.9%; as for `O=C(CSc1nc2ccccc2nc1Cc1ccc(Cl)cc1)N1CCCCC1`, 21.6%.
Consider `CCc1ccccc1-n1c(SCC(=O)Nc2ccc(C)cc2)nc2n[nH]c(C)c2c1=N`, for which the inhibition is -16.4%.
`COc1ccc2nc(NC(=O)C3CCN(S(=O)(=O)c4cnc[nH]4)CC3)sc2c1`: the inhibition was active: 32.3%.
As for `O=C(c1ccc2c(c1)N(Cc1ccccc1Cl)C(=O)c1ccccc1S2)N1CCCC1`, the inhibition is -7.39%.
Consider `CCc1cccc(NC(=O)Cn2c(-c3ccc(F)cc3)cc(C(C)=O)c2C)c1`, for which the inhibition is -11.4%.
Regarding `Cc1ccc(NC(=O)CN2CCCCCC2)cc1Br`, the inhibition is active: 41.5%.
As for `Cc1ccccc1CNC(=O)CN1CCSc2ccccc21`, the figure is -10.1%; as for `Nc1nc2nc(-c3ccccc3)cc(=O)n2[nH]1`, 0.731%.
As for `COc1ccc(Nc2ncc(C(=O)Nc3ccc(F)cc3F)c3ccccc23)cc1`, the figure is 7.88%.
For `CCCOc1ccc(/C=C2\SC(N)=NC2=O)cc1OC` the value was active: 65.7%.
For `CCC(C(=O)Nc1cc(-c2cn3cccnc3n2)ccc1C)c1ccccc1` (stereo not given), the inhibition is -10.5%.
`CCOCCCn1c(SCC(=O)Nc2ccc(F)cc2)nc2c(sc3ccccc32)c1=O`: the inhibition was found to be 11%.
As for `COc1ccccc1N1CCN(S(=O)(=O)c2ccc3c(c2)CCCN3C(C)=O)CC1`, the figure is 8.45%.
As for `Cc1cc(=O)n2nc(N3CCC(C(=O)NCCCOC(C)C)CC3)sc2n1`, the inhibition is 2.33%.
As for `O=C(CSc1nnc(CNC(=O)c2ccccc2)n1-c1ccc(F)cc1)Nc1ccccc1F`, the figure is 21.9%.
For `O=C(CC1NCCNC1=O)Nc1ccc(F)c(Cl)c1` (stereo not given) the value was -1.09%; for `Cc1nn(-c2ccc(F)cc2)c(-n2cccc2)c1C(=O)N1CCCCC1C` (stereo not given), -6.59%.
For `Cc1cc(NC(=O)c2oc3c(c2C)-c2[nH]ncc2CC3)ccc1Br` the value was 2.76%; for `CCOc1ccc(CNC(=O)CCn2c(=O)c3cccn3c3cccnc32)cc1`, -5.03%.
As for `O=C(CSc1nc(=O)n(Cc2ccco2)c2c1CCC2)NCc1ccccc1Cl`, the inhibition worked out at 14.2%.
For `COC(=O)c1scc(-c2ccc(C)cc2)c1S(=O)(=O)Nc1ccc(OC(F)(F)F)cc1` the value was -0.207%.
As to `Cc1cc(N2CCN(C)CC2)nc2ccc(NC(=O)Nc3ccc(Cl)cc3)cc12`, the inhibition came to 0.21%.
As for `N#Cc1ccc(NC(=O)COCc2cc(-c3ccc4c(c3)OCO4)on2)cc1`, the figure is -6.27%; as for `CCOc1ccc(N2CC(NC(=O)c3ccc(S(=O)(=O)N4CCOCC4)cc3)CC2=O)cc1` (stereo not given), 7.08%; as for `COCCNC(=O)CN1C(=O)COc2ccc(S(=O)(=O)N3CCOCC3)cc21`, -5.17%.
In the case of `CCc1ccccc1N(C)C(=O)Nc1cn(CC(C)C)c(=O)c2ccccc12`, the inhibition came to 9.57%.
`CCn1cc(C(=O)OCC(=O)Nc2cccc(Cl)c2C)c(=O)c2ccc(C)nc21`: the inhibition is -0.115%.
For `CCC1CCCCN1S(=O)(=O)c1ccc2c(c1)CCCN2C(C)=O` (stereo not given) the value was -8.43%; for `C=Cc1ccc(CSc2nc(-c3ccccc3C)nc3c2Cc2c(CO)cnc(C)c2O3)cc1`, 6.82%.
As for `COC(=O)c1c(SC)nc2ccccc2c1OCc1ccc(C)cc1C`, the inhibition is -5.24%.
For `O=C(CSc1nnc2scc(-c3ccc(Cl)cc3)n12)Nc1ccccc1F` the value was 24.4%; for `Cc1ccc(-c2cc(C(F)(F)F)n3nc(C(=O)Nc4sc5c(c4C#N)CCC(C)C5)cc3n2)cc1` (stereo not given), -2.51%; for `Cc1ccc2onc(CC(=O)Nc3cc(F)ccc3F)c2c1`, -6.44%.
`COc1ccc(C(=O)Nc2ccc3c(c2)N(C2CCCC2)C(=O)c2ccccc2S3)cc1OC`: the inhibition is -5.91%.
For the compound `CC(CNC(=O)c1ccc(CSc2nc3ccncc3n2Cc2cccc(F)c2)cc1)c1ccccc1` (stereo not given), the inhibition came to 10.6%.
As to `CCOc1cccc(CC(=O)N2CCc3c([nH]c4ccccc34)C2c2ccc(C)cc2)c1OCC` (stereo not given), the inhibition came to 3.96%.
Turning to `Cc1ccc(C)c(-c2nn(CC(=O)Nc3cc(F)ccc3F)c(=O)c3c2CCCC3)c1`, the inhibition turned out to be 8.09%.
Take `COc1cc(C(=O)Nc2ccc(Cl)c(-c3nc4ncccc4o3)c2)cc(OC)c1OC`: the inhibition was -4.53%.
On to `O=C(Cn1cc(S(=O)(=O)N2CCN(c3ccccc3F)CC2)c2ccccc2c1=O)Nc1cccc(C(F)(F)F)c1`, for which the inhibition is 10.6%.
On to `Cc1ccccc1CNC(=O)CCCn1c(=O)c2cccn2c2ccccc21`, for which the inhibition is -8.81%.
Regarding `Cc1cccc2c1-c1sc(C(=O)N3CCN(c4ccc(F)cc4)CC3)cc1CO2`, the inhibition is -5.88%.
As for `COc1ccccc1CNC(=O)CCCn1nc(C)c2c(C)n(-c3ccc(C)cc3)nc2c1=O`, the figure is -17.7%; as for `Cc1nc2ccn(Cc3cccnc3)c(=O)c2cc1C(=O)NCc1ccc(Cl)cc1`, -1.37%.
As for `COc1ccc(N2C(=O)CSC23C(=O)N(CC(=O)NCc2ccccc2)c2ccccc23)cc1` (stereo not given), the figure is -5.42%; as for `COc1ccc(S(=O)(=O)NC2(C(F)(F)F)NC(=O)N(CCc3ccc(OC)c(OC)c3)C2=O)cc1` (stereo not given), 3.07%; as for `CS(=O)(=O)NCCc1csc2nc(-c3ccccc3)nn12`, -3.61%.
For `COc1cc(C2C(C(=O)OC(C)C)=C(C)N=C3SCCC(=O)N32)ccc1OCc1ccccc1` (stereo not given) the value was 21%; for `COc1ccc(OC)c(NC(=O)c2c(NCc3ccc(C)o3)sc3c2CCCCC3)c1`, 4.2%; for `COc1cccc(NC(=O)N(Cc2cn(C)c3ccccc23)C2CCCCC2)c1`, -1.5%.
`COc1ccc(NC(=O)NCc2cccn2Cc2ccc(F)cc2)cc1OC`: the inhibition was -9.78%.
For `Cc1cc(Nc2ccccc2Cl)n2nc(-c3ccco3)nc2n1` the value was -11.6%; for `COc1ccccc1CNC(=O)C1CCN(S(=O)(=O)c2c(C)noc2/C=C/c2cccs2)CC1`, 8.88%; for `Cc1cc(=O)n(Cc2ccc(F)cc2Cl)c2c1c(C)nn2-c1ccccc1`, 14.4%.
Consider `CCn1c(=O)c2sccc2n2c(CCCC(=O)N3CCN(c4cc(C)ccc4C)CC3)nnc12`, for which the inhibition is -11.9%.
As to `Cc1ccn2c(=O)c(C(=O)NCCc3ccc(S(N)(=O)=O)cc3)c(O)nc2c1`, the inhibition worked out at 11.2%.
Turning to `COc1ccccc1N1CCN(S(=O)(=O)CCNC(=O)COc2ccc(F)cc2)CC1`, the inhibition is -6.88%.
As for `Cc1ccc(CNC(=O)Cn2c(=O)cc(-c3ccccc3)c3c(C)nn(C)c32)cc1`, the figure is -5.37%; as for `COc1cc(C2CC(=O)Oc3c(C(CCN4CCCC(C)C4)c4ccc(N(C)C)cc4)c(OC)cc(OC)c32)cc(OC)c1OC` (stereo not given), active: 43.7%.
As for `CCOc1ccc(C(=O)NCCC2=CCCCC2)cc1OCC`, the inhibition was active: 37.5%.
For `CCc1ccc(NC(=O)CC2C(=O)N(c3ccc(OC)cc3)C(=O)N2Cc2ccc(OC)cc2)cc1` (stereo not given) the value was -3.69%; for `Cc1c(C(=O)NCCc2ccccc2)cccc1-n1cnc2cccnc21`, 1.33%; for `COc1ccc(CCNc2ncnc3c2c(-c2ccccc2)cn3-c2cccc(Cl)c2)cc1OC`, -20.8%.
Turning to `CCOc1ccc(NC(=O)Cn2c(=O)n(Cc3ccccc3)c(=O)c3sc4ccccc4c32)cc1`, the inhibition was -1.94%.
`Cc1cc(C)cc(NC(=O)CN2C(=O)CSc3ccc(S(=O)(=O)N4CCCC4)cc32)c1`: the inhibition was found to be 9.54%.
In the case of `COc1ccccc1/C=C\C(=O)NCC(=O)N/N=C/c1cccc(OC)c1O`, the inhibition is active: 49.5%.
Regarding `CCOc1ccc(NC(=O)c2c(NC(=O)c3cccc(C)c3)sc3c2CCC3)cc1`, the inhibition amounted to 5.66%.
Regarding `O=C(NCC1CCN(Cc2cccc(F)c2)CC1)c1cc2ccc3cccnc3c2[nH]1`, the inhibition turned out to be 11.5%.
As for `CCOC(=O)c1c(NC(=O)CSc2cn(CCNC(=O)c3ccccc3OC)c3ccccc23)sc2c1CCCC2`, the figure is 9%; as for `CC1=C(c2ccc(C(C)C)cc2)S(=O)(=O)N=C1N1CCC(C(=O)NCc2ccco2)CC1`, 4.7%; as for `Cc1nn(CC(=O)N2CCN(c3ccccc3)CC2)c(=O)c2cc3cc(F)ccc3n12`, 1.29%.
For `CCSc1nc(-c2ccccc2)nc2c1Cc1c(CO)cnc(C)c1O2` the value was -4.03%; for `CCOC(=O)C1CCN(C(=O)C2CCN(S(=O)(=O)c3c(C)noc3/C=C/c3ccc(C)cc3)CC2)CC1`, 10.5%; for `CCOC(=O)c1[nH]c(C)c(CCC(=O)N2CCN(c3ccc(OC)cc3)CC2)c1C`, -10.2%.
For `O=C(O)CCC(=O)N1CCc2cc(S(=O)(=O)NCc3ccc(F)cc3)ccc21` the value was -23.1%; for `COc1ccc(NC(=O)c2cccc3c(=O)c4c([nH]c23)CCCC4)cc1`, 19.3%; for `Cc1ccc(C(C)C)c(OCC(=O)Nc2ccc3c(c2)nc(CCNC(=O)c2ccco2)n3C)c1`, 4.05%.
Take `CCCC1=Nc2cc(C(=O)NCc3ccccc3)ccc2Sc2ccccc21`: the inhibition was found to be 5.57%.
In the case of `COc1ccc(S(=O)(=O)NCCc2sc(-c3cccnc3)nc2C)cc1`, the inhibition is -15.4%.
Turning to `Cn1c(=O)c2c(-c3ccccc3)n3c(c2n(C)c1=O)C(c1ccc([N+](=O)[O-])cc1)Nc1ccccc1-3` (stereo not given), the inhibition is -10.3%.
`COc1ccc(NC(=O)Cn2c(=O)c3cccn3c3ccccc32)cc1`: the inhibition is -4.54%.
For the compound `O=C(NC1CC(=O)N(c2ccc(F)cc2)C1)c1ccc(S(=O)(=O)N2CCOCC2)cc1` (stereo not given), the inhibition was 12.9%.
Take `Cc1ccc(C(=O)c2oc3ccccc3c2NC(=O)c2cc(-c3ccccc3)on2)cc1`: the inhibition was found to be 10.9%.
For `Cc1ccc(-n2ncc3c(Nc4ccc5c(c4)OCCO5)ncnc32)cc1Cl` the value was -21.5%; for `CCOC(=O)c1c(NC(=O)c2ccc(S(=O)(=O)N3CCCC(C)C3)cc2)sc2c1CC(C)(C)NC2(C)C` (stereo not given), -4.02%; for `CCOCCCN1C(=O)CN(C2CCCCCC2)C(=O)C1c1ccc(OCC)c(OC)c1` (stereo not given), 23.1%.
